According to the supplement of paper PMC10126150:
Values marked as one replicate rest on one cluster of the flow cell; about a third of the high ones do not repeat.
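Also: ATP exposure 15 min at 22 °C before imaging.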

The sequences below were run on ATP (assay: switch fluorescence ratio, 500 uM ATP over buffer (Cy3 cluster intensity, sum of 5 cycles each) (fold (ratio)); higher = stronger signal-on switching upon ATP binding; sequences stand for … in TCGTCGGCAGCGTCAGATGTGTATAAGAGACAGTTTTTTTTTTTTTTTTTTTTTTTTT…TC). Settings: aptamer strand: ATP DNA aptamer (quencher-CACCTGGGGGAGTATTGCGGAGGAAGG + anchor), 100 nM annealed; ATP concentration: 500 uM; one replicate.
Outline: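 Cy3-labelled switching-strand clusters on a modified Illumina MiSeq flow-cell were annealed to 100 nM quencher-labelled ATP aptamer and imaged first in selection buffer, then after 15 min with 500 uM ATP at 22 °C. NaOH stripping and re-annealing separated each of five buffer/ATP cycles, and clusters outside 100-1000 RFU were excluded. The fluorescence ratio sums target-cycle Cy3 intensity over buffer-cycle Cy3 intensity per cluster and averages it per switch-domain sequence.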
With GAGTGCTAAG the switch fluorescence ratio was 1. With GAGTGCTCCA the switch fluorescence ratio was 0.975. GAGTGGACGA gave a switch fluorescence ratio of 0.982. With GAGTGGTGCG the switch fluorescence ratio was 1.01. With GAGTGTTAC the switch fluorescence ratio was 1.03. GAGTGTTTGT gave a switch fluorescence ratio of 0.949. GAGTTCGAGT gave a switch fluorescence ratio of 1.06. With GAGTTGGAGG the switch fluorescence ratio was 0.971. Work on GAGTTGGCTT yielded a switch fluorescence ratio of 1.01. GAGTTTAAC was tested, and the switch fluorescence ratio was 1.13. Work on GAGTTTCGGC yielded a switch fluorescence ratio of 0.951. For GAGTTTTTCT, the switch fluorescence ratio was 0.944. GATAAATAGC gave a switch fluorescence ratio of 1.07. In the case of GATAACATGC, the switch fluorescence ratio is reported as 0.993. GATAAGTGAA was tested, and the switch fluorescence ratio was 1.01. GATAATCCGG was tested, and the switch fluorescence ratio was 1.02. For GATAATGTGG, the switch fluorescence ratio was 1. GATAATTAGC was tested, and the switch fluorescence ratio was 0.946. Sequence GATACACACA has a switch fluorescence ratio of 1.34. GATACATTGG showed a switch fluorescence ratio of 0.992. GATACGACTG was tested, and the switch fluorescence ratio was 1.08. Sequence GATACTATAA has a switch fluorescence ratio of 1.02. For GATACTGTCC, the switch fluorescence ratio was 1.14. GATACTTTCC was tested, and the switch fluorescence ratio was 2.15. For GATAGAAGA, the switch fluorescence ratio was 1.02. Work on GATAGAGTAA yielded a switch fluorescence ratio of 0.923. In the case of GATAGAGTTA, the switch fluorescence ratio is reported as 0.991. Sequence GATAGATTGA has a switch fluorescence ratio of 1.04. GATAGCCGAA showed a switch fluorescence ratio of 1.01. Work on GATAGCGCCA yielded a switch fluorescence ratio of 0.998. GATAGTAGTG showed a switch fluorescence ratio of 1.02. Work on GATAGTGATG yielded a switch fluorescence ratio of 1.02. GATATAGGAA gave a switch fluorescence ratio of 1. For GATATATCGA, the switch fluorescence ratio was 1.01. GATATCCG gave a switch fluorescence ratio of 0.977. For GATATCCGCC, the switch fluorescence ratio was 1.73. GATATCCGTC was tested, and the switch fluorescence ratio was 0.998. In the case of GATATCGGCA, the switch fluorescence ratio is reported as 1.01. With GATATTCAAG the switch fluorescence ratio was 1.03. With GATATTCGTG the switch fluorescence ratio was 0.967. GATATTCTCA gave a switch fluorescence ratio of 0.995. GATATTTCGC gave a switch fluorescence ratio of 1.03. GATCAAATTG gave a switch fluorescence ratio of 0.98. Work on GATCACCTAT yielded a switch fluorescence ratio of 0.985. GATCAGATT gave a switch fluorescence ratio of 1. GATCATATAA gave a switch fluorescence ratio of 1.05. GATCCAAATT gave a switch fluorescence ratio of 1. GATCCAGTTT was tested, and the switch fluorescence ratio was 0.957. Sequence GATCCGGTCA has a switch fluorescence ratio of 1.04. In the case of GATCCTCGT, the switch fluorescence ratio is reported as 0.96. In the case of GATCCTTTGA, the switch fluorescence ratio is reported as 0.961. GATCGTCACC showed a switch fluorescence ratio of 1.05. GATCGTCAGC was tested, and the switch fluorescence ratio was 1.01. GATCGTCATC was tested, and the switch fluorescence ratio was 0.999. In the case of GATCGTTCTT, the switch fluorescence ratio is reported as 0.997. Sequence GATCTAGATC has a switch fluorescence ratio of 0.977. For GATCTAGATG, the switch fluorescence ratio was 0.995. GATCTCATGA gave a switch fluorescence ratio of 0.934. In the case of GATCTCCTTC, the switch fluorescence ratio is reported as 1.03. For GATCTGTTTT, the switch fluorescence ratio was 0.982. Sequence GATCTTGCGA has a switch fluorescence ratio of 1.16. GATGAAACCA gave a switch fluorescence ratio of 1.05. For GATGAGCACT, the switch fluorescence ratio was 1.05. GATGAGCGAC was tested, and the switch fluorescence ratio was 0.98. GATGAGGCTT was tested, and the switch fluorescence ratio was 0.967. Work on GATGATAGAT yielded a switch fluorescence ratio of 0.961. GATGATCCTC was tested, and the switch fluorescence ratio was 0.997. Sequence GATGATCTAG has a switch fluorescence ratio of 0.986. For GATGCAGTGC, the switch fluorescence ratio was 2.81. In the case of GATGCATCGC, the switch fluorescence ratio is reported as 0.99. GATGCCCCA was tested, and the switch fluorescence ratio was 1.02. GATGCCGCCA was tested, and the switch fluorescence ratio was 1.04. GATGCCTCCA gave a switch fluorescence ratio of 1.02. GATGCGCTTT gave a switch fluorescence ratio of 0.956. For GATGCGGATA, the switch fluorescence ratio was 1.08. With GATGCTGTTG the switch fluorescence ratio was 0.997. GATGGAACGA was tested, and the switch fluorescence ratio was 1.04. GATGGATAG gave a switch fluorescence ratio of 1.01. GATGGATTGG was tested, and the switch fluorescence ratio was 0.971. GATGGCCGTA gave a switch fluorescence ratio of 1.06. With GATGGCGATG the switch fluorescence ratio was 1.05. GATGGGGAAA gave a switch fluorescence ratio of 0.936. GATGGGGAAG was tested, and the switch fluorescence ratio was 0.97. With GATGGTCCC the switch fluorescence ratio was 1.1. Work on GATGGTCTCC yielded a switch fluorescence ratio of 1.02. With GATGTAACTA the switch fluorescence ratio was 1.02. With GATGTAATTA the switch fluorescence ratio was 1.02. GATGTACGCG showed a switch fluorescence ratio of 0.927. GATGTACGG was tested, and the switch fluorescence ratio was 1.07. Sequence GATGTACGGA has a switch fluorescence ratio of 1.06. GATGTAGAGC was tested, and the switch fluorescence ratio was 0.973. With GATGTAGCCT the switch fluorescence ratio was 1.05. GATGTAGTTG showed a switch fluorescence ratio of 0.996. With GATGTCACT the switch fluorescence ratio was 0.981. GATGTCCGCC gave a switch fluorescence ratio of 1.65. GATGTCTACT showed a switch fluorescence ratio of 0.997. With GATGTGCGTT the switch fluorescence ratio was 0.983. Work on GATGTTCAGA yielded a switch fluorescence ratio of 0.986. For GATGTTCTT, the switch fluorescence ratio was 0.952. With GATGTTTTGC the switch fluorescence ratio was 1.02. In the case of GATTAAAGAG, the switch fluorescence ratio is reported as 1.03. Work on GATTAATGTA yielded a switch fluorescence ratio of 1. GATTACGTTT was tested, and the switch fluorescence ratio was 0.998. In the case of GATTAGATG, the switch fluorescence ratio is reported as 0.951. In the case of GATTAGGACT, the switch fluorescence ratio is reported as 1.03. GATTAGTGCC gave a switch fluorescence ratio of 0.966. GATTATTA gave a switch fluorescence ratio of 1.01. GATTATTGTG showed a switch fluorescence ratio of 1. GATTCAACCA was tested, and the switch fluorescence ratio was 0.993. With GATTCAATTT the switch fluorescence ratio was 0.989. Sequence GATTCCCACT has a switch fluorescence ratio of 1.06. GATTCCCATA was tested, and the switch fluorescence ratio was 0.978. Sequence GATTCCTGAA has a switch fluorescence ratio of 1.06. Sequence GATTCCTGAT has a switch fluorescence ratio of 0.991. For GATTCGGCA, the switch fluorescence ratio was 0.988. GATTCGGGCA was tested, and the switch fluorescence ratio was 0.975. Sequence GATTCGTGCC has a switch fluorescence ratio of 0.991. GATTGCACTG was tested, and the switch fluorescence ratio was 1.04. Work on GATTGCTCGG yielded a switch fluorescence ratio of 0.956. With GATTGCTGCT the switch fluorescence ratio was 1.01. GATTGGACTG gave a switch fluorescence ratio of 1.03. Sequence GATTGGATGC has a switch fluorescence ratio of 1. Work on GATTGGCGA yielded a switch fluorescence ratio of 0.97. For GATTGGGGTC, the switch fluorescence ratio was 0.98. GATTGTCCGG gave a switch fluorescence ratio of 0.998. Work on GATTGTGGCC yielded a switch fluorescence ratio of 0.949. Work on GATTTACAGG yielded a switch fluorescence ratio of 1.03. In the case of GATTTCAGAG, the switch fluorescence ratio is reported as 0.991. GATTTGCGAG showed a switch fluorescence ratio of 1.02. GATTTGGCCA showed a switch fluorescence ratio of 0.948. Work on GATTTTACAG yielded a switch fluorescence ratio of 0.999. In the case of GATTTTGGT, the switch fluorescence ratio is reported as 0.94. GCAAAAGATT was tested, and the switch fluorescence ratio was 1. Work on GCAAAGACTT yielded a switch fluorescence ratio of 1.15. For GCAAAGAGTA, the switch fluorescence ratio was 0.988. GCAAAGCATG was tested, and the switch fluorescence ratio was 1.04. GCAAAGTCT was tested, and the switch fluorescence ratio was 0.954. With GCAAATCGAC the switch fluorescence ratio was 1.79. GCAACATGAG gave a switch fluorescence ratio of 0.954. In the case of GCAACATTGT, the switch fluorescence ratio is reported as 0.984. Sequence GCAACCGGGA has a switch fluorescence ratio of 1.01. For GCAACCTGTT, the switch fluorescence ratio was 1.03. For GCAACGTTAG, the switch fluorescence ratio was 1. GCAACTGCGA gave a switch fluorescence ratio of 1.11. GCAAGAATCT showed a switch fluorescence ratio of 1.06. GCAAGGAAAC gave a switch fluorescence ratio of 1.03. Work on GCAAGGCGGT yielded a switch fluorescence ratio of 1.04. With GCAAGGCGTT the switch fluorescence ratio was 1.02. GCAAGGGCAC showed a switch fluorescence ratio of 1.04. With GCAAGTCCAT the switch fluorescence ratio was 1. Sequence GCAAGTCGCG has a switch fluorescence ratio of 0.992. With GCAATAGAAG the switch fluorescence ratio was 1.07. For GCAATATCTT, the switch fluorescence ratio was 1.85. GCAATCGTGA was tested, and the switch fluorescence ratio was 1.06. GCAATGAACG was tested, and the switch fluorescence ratio was 1.18. GCAATGGTCG showed a switch fluorescence ratio of 1.17. GCAATGTGGG gave a switch fluorescence ratio of 1.19. GCAATTATTA showed a switch fluorescence ratio of 1.06. In the case of GCAATTCAAT, the switch fluorescence ratio is reported as 1.02. In the case of GCAATTTCTC, the switch fluorescence ratio is reported as 2.23. GCACAAAACG showed a switch fluorescence ratio of 1.23. GCACAACATA was tested, and the switch fluorescence ratio was 1.02. Work on GCACAAGT yielded a switch fluorescence ratio of 0.981. GCACACCATG gave a switch fluorescence ratio of 1.08. For GCACAGGAGT, the switch fluorescence ratio was 1.17. GCACCAGGCG was tested, and the switch fluorescence ratio was 2.3. In the case of GCACCAGTCG, the switch fluorescence ratio is reported as 1.06. GCACCGTGTG showed a switch fluorescence ratio of 0.989. Sequence GCACCTTCCA has a switch fluorescence ratio of 2.06. In the case of GCACGATGCG, the switch fluorescence ratio is reported as 0.991. GCACGGATTT showed a switch fluorescence ratio of 1.1. With GCACGGGTCA the switch fluorescence ratio was 1.07. Sequence GCACGTGTGG has a switch fluorescence ratio of 1.02. GCACTATCAT gave a switch fluorescence ratio of 0.972. Sequence GCACTCCGTT has a switch fluorescence ratio of 1.25. GCACTCGTTT showed a switch fluorescence ratio of 0.956. GCACTGCTCG showed a switch fluorescence ratio of 1.05. For GCACTGCTGT, the switch fluorescence ratio was 1. GCACTTACTG showed a switch fluorescence ratio of 1.22. GCACTTCAC showed a switch fluorescence ratio of 1.28. GCACTTCCCA was tested, and the switch fluorescence ratio was 1.18. GCACTTTCGC was tested, and the switch fluorescence ratio was 0.974. For GCAGAAACTA, the switch fluorescence ratio was 1.2. Work on GCAGAAATCT yielded a switch fluorescence ratio of 1.07. For GCAGAATAGG, the switch fluorescence ratio was 0.963. GCAGACCCGA showed a switch fluorescence ratio of 0.988. GCAGACCTTT showed a switch fluorescence ratio of 1.03. In the case of GCAGACGTGA, the switch fluorescence ratio is reported as 0.991. With GCAGAGTGGG the switch fluorescence ratio was 1.02. For GCAGATCAGC, the switch fluorescence ratio was 1.05. GCAGATGTGC gave a switch fluorescence ratio of 1.02. Sequence GCAGATTCAG has a switch fluorescence ratio of 0.993. GCAGCAAATA showed a switch fluorescence ratio of 1.14. GCAGCATGAA gave a switch fluorescence ratio of 1.3. With GCAGCATGTA the switch fluorescence ratio was 1.1. Work on GCAGCCATTG yielded a switch fluorescence ratio of 1.01. GCAGCCCAAT was tested, and the switch fluorescence ratio was 1.22. In the case of GCAGCGGCAT, the switch fluorescence ratio is reported as 1.03. In the case of GCAGCGTAAG, the switch fluorescence ratio is reported as 1.01. For GCAGCTACGA, the switch fluorescence ratio was 1.81. GCAGCTGCGC was tested, and the switch fluorescence ratio was 0.992.
